Data published in PubChem BioAssay AID1963576 (National Center for Advancing Translational Sciences (NCATS), 2024).
About 60 (0.1%) of roughly 46,000 compounds were called active. Inconclusive results (about 3%) are left out. Calls come from the whole dose curve; as a rule, active = well fitted inhibition curve with a large enough effect; inconclusive = small, poorly fitted or top-dose-only effect; inactive = no such curve, though single readings can be large or run the other way. This is one part of the list.

Assay: Primary qHTS assay for Inhibitors of ovarian cancer metastasis using an organotypic tumor microenvironment (TME) model.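 For activity change, negative = inhibition: plate controls were DMSO wells for no effect and tomatine positive control wells for full effect.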 Note: nearly all actives have a fitted effect of over 65% in size.
Conditions: SKOV3ip1-GFP adhesion/invasion on 3D omental model, fluorescence; series mostly up to 45.8 µM; activity change, negative = inhibition: at the top concentration
Outline: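 qHTS, 4-pt dose (0.36-46 umol/L); SKOV3ip1-GFP, 1,200 cells/well, no FBS; primary omental fibroblast/mesothelial co-culture 48 h pre-grown; 2 h RT + 16 h 37 C; PBS wash, 4% PFA; GFP count 488/509 nm.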

**Q.** For `Cc1ccc(NC(=O)Cn2nc(C)c3nn(-c4ccc(Cl)cc4)c(C)c3c2=O)cc1F`, which “outcome” value is on record?
**A.** inactive

**Q.** Which “activity change, negative = inhibition” value does the source give for `O=C(NCc1ccccc1)c1ccc(CS(=O)(=O)c2c(Cl)cccc2Cl)o1` here?
**A.** inactive: -3.72%

**Q.** For `CCOc1ccc(CNS(=O)(=O)c2ccc3c(c2)CC(C)N3C(C)=O)cc1OC` (stereo unspecified), which “activity change, negative = inhibition” value is on record?
**A.** inactive: 1.47%

**Q.** For `COc1ccc(OC)c(CCNC(=O)CCCn2c(=O)c3cccn3c3cccnc32)c1`, which “activity change, negative = inhibition” value is on record?
**A.** inactive: -3.9%

**Q.** With `COc1ccc(-n2nc3c(N4CCC(C(=O)NC5CCCCC5)CC4)nnc(C)c3c2C)cc1` as the compound, how does the “activity change, negative = inhibition” value read?
**A.** inactive: -12.2%

**Q.** Which “activity change, negative = inhibition” value does the source give for `COc1ccc(-c2n[nH]c3c2C(c2ccccn2)N(C)C3=O)cc1` (stereo unspecified) here?
**A.** inactive: -11.5%

**Q.** For `Cc1c(CN2CCN(C(=O)C(C)C)CC2)sc2c(N3CCOCC3)nc(-c3cnc(N)nc3)nc12`, which “activity change, negative = inhibition” value is on record?
**A.** inactive: 19.1%

**Q.** For `COc1cc(CNC(=O)c2ccc(NC(=O)N3CCCCc4ccccc43)cc2)cc(OC)c1OC`, which “activity change, negative = inhibition” value is on record?
**A.** inactive: 3.82%

**Q.** With `Cc1cc(C(=O)NCCc2ccc(Cl)cc2)c2c(C)nn(-c3ccccc3)c2n1` as the compound, how does the “activity change, negative = inhibition” value read?
**A.** inactive: -3.35%

**Q.** For `Cc1cccc(C(=O)Nc2ccc3nc(SCC(=O)N4CCCC4)sc3c2)c1`, which “activity change, negative = inhibition” value is on record?
**A.** inactive: -6.62%

**Q.** For `O=C(CSc1nc(=O)[nH]c2c1CCC2)Nc1cc(C(F)(F)F)ccc1Cl`, which “activity change, negative = inhibition” value is on record?
**A.** inactive: -5.95%

**Q.** For `Cc1ccc2oc(=O)c3cnn(CC(=O)N4CCN(c5cccc(Cl)c5)CC4)c3c2c1`, which “activity change, negative = inhibition” value is on record?
**A.** inactive: 5.27%

**Q.** For `CCOC(=O)c1[nH]c(C)c(CCC(=O)N2CCN(c3cc(C)ccc3C)CC2)c1C`, which “activity change, negative = inhibition” value is on record?
**A.** inactive: -3.93%

**Q.** For `CCOc1ccc(OCC)c(NC(=O)CN(C)S(=O)(=O)c2ccc3[nH]c(=O)oc3c2)c1`, which “activity change, negative = inhibition” value is on record?
**A.** inactive: 5.68%

**Q.** Which “activity change, negative = inhibition” value does the source give for `O=C(NCCc1ccc(Cl)cc1)c1cnc2sc(N3CCCC3)nn2c1=O` here?
**A.** inactive: 1.26%

**Q.** Which “activity change, negative = inhibition” value does the source give for `O=C(c1cccs1)N1CCCc2cc(NS(=O)(=O)c3cc(F)ccc3F)ccc21` here?
**A.** inactive: 0.451%

**Q.** Which “activity change, negative = inhibition” value does the source give for `Cc1ccc(OCC(=O)NCC(=O)OCc2cc(=O)n3nc(CC(C)C)sc3n2)cc1` here?
**A.** inactive: 21.3%

**Q.** With `CCc1ccccc1NC(=O)C1CCCN(S(=O)(=O)c2ccc3[nH]c(=O)ccc3c2)C1` (stereo unspecified) as the compound, how does the “outcome” value read?
**A.** inactive

**Q.** With `CC(=O)c1cccc(NC(=O)CCn2nc(C)c(S(=O)(=O)N3CCCCC3)c2C)c1` as the compound, how does the “activity change, negative = inhibition” value read?
**A.** inactive: 8.08%

**Q.** For `COc1ccc(-c2nn3c(-c4ccccc4)nnc3c3ccccc23)cc1`, which “activity change, negative = inhibition” value is on record?
**A.** inactive: -7.44%

**Q.** Which “activity change, negative = inhibition” value does the source give for `Nc1nccc(Oc2ccc(NC(=O)c3c[nH]cc(-c4ccc(F)cc4)c3=O)cc2F)c1Cl` here?
**A.** inactive: -14.3%

**Q.** With `Oc1ccccc1-c1nc2cnccn2c1Nc1ccc(Cl)cc1` as the compound, how does the “activity change, negative = inhibition” value read?
**A.** inactive: -13.2%

**Q.** For `Cc1ccc2nc(NC(=O)CSc3cc(C)[nH]c(=O)n3)sc2c1`, which “activity change, negative = inhibition” value is on record?
**A.** inactive: 6.46%

**Q.** For `COc1ccc(CNC(=O)CN2C(=O)COc3ccccc32)c(OC)c1`, which “activity change, negative = inhibition” value is on record?
**A.** inactive: -2.05%

**Q.** Which “outcome” value does the source give for `CC(=O)c1ccc(NC(=O)C2CCN(S(=O)(=O)c3c(C)noc3/C=C/c3ccc(C)cc3)CC2)cc1` here?
**A.** inactive

**Q.** Which “activity change, negative = inhibition” value does the source give for `CCOc1ccc(CNC(=O)CCCn2c(=O)c3cccn3c3cccnc32)cc1` here?
**A.** inactive: 6.84%

**Q.** With `COc1cccc2c(NCc3ccccc3)nc(-n3c(N)nc4ccccc43)nc12` as the compound, how does the “activity change, negative = inhibition” value read?
**A.** inactive: 16.4%

**Q.** Which “activity change, negative = inhibition” value does the source give for `CCOc1ccc(C(=O)N2CCc3cc(OC)c(OC)cc3C2COc2ccc3c(C)cc(=O)oc3c2)cc1OCC` (stereo unspecified) here?
**A.** inactive: -1.89%

**Q.** Which “activity change, negative = inhibition” value does the source give for `CCn1c(C(=O)Nc2ccccc2C(=O)OC)cc2sc(Cl)cc21` here?
**A.** inactive: -4.42%

**Q.** For `COC(=O)c1c(NC(=O)CCCOc2ccc(C)cc2)sc2c1CCCC2`, which “activity change, negative = inhibition” value is on record?
**A.** inactive: 1.91%

**Q.** With `COc1cc(NC(=O)CCNC(=O)Cn2ccc3ccccc3c2=O)cc(OC)c1OC` as the compound, how does the “activity change, negative = inhibition” value read?
**A.** inactive: -1.18%

**Q.** Which “outcome” value does the source give for `O=C1CCc2cc(S(=O)(=O)NCc3ccccc3)cc3c2N1CC3` here?
**A.** inactive

**Q.** With `COc1ccc(CCNC(=O)c2cc(Nc3ccccc3)nc3ccccc23)cc1OC` as the compound, how does the “outcome” value read?
**A.** inactive

**Q.** Which “activity change, negative = inhibition” value does the source give for `CCCOc1ccc(OC(=O)c2ccc(-c3ccc(CCC)cn3)cc2)cc1` here?
**A.** inactive: -7.56%

**Q.** For `Cc1ccccc1Cn1c(SCc2ccc(C(=O)N3CCCCC3)cc2)nc2ccncc21`, which “activity change, negative = inhibition” value is on record?
**A.** inactive: 3.73%

**Q.** With `O=S(=O)(NCCc1csc(-c2cccc(F)c2)n1)c1cc(F)ccc1F` as the compound, how does the “activity change, negative = inhibition” value read?
**A.** inactive: -24%

**Q.** With `COC(=O)c1ccccc1NC(=O)CCCn1c(C)c2cnn(-c3ccccc3)c(=O)c2c1C` as the compound, how does the “outcome” value read?
**A.** inactive

**Q.** For `O=C(CCCCn1c(=O)c2ccccc2n(Cc2ccc(F)cc2Cl)c1=O)NCCc1ccc(Cl)cc1`, which “activity change, negative = inhibition” value is on record?
**A.** inactive: -17.7%

**Q.** With `CCCn1ccc2c(OCC(=O)Nc3ccccc3C(=O)OCC)cccc2c1=O` as the compound, how does the “activity change, negative = inhibition” value read?
**A.** inactive: 1.27%

**Q.** Which “outcome” value does the source give for `O=C(Nc1ccc(S(=O)(=O)N(Cc2ccccc2)c2ccccc2)cc1)c1ccccc1F` here?
**A.** inactive

**Q.** With `Cc1ccc(NC(=O)Cn2c(=O)n(Cc3ccc(F)cc3)c(=O)c3cccnc32)cc1C` as the compound, how does the “activity change, negative = inhibition” value read?
**A.** inactive: -9.55%

**Q.** For `CCOC(=O)c1cc2c(=O)n3ccccc3nc2n(CCCOC)c1=NC(=O)c1c(-c2c(F)cccc2Cl)noc1C`, which “activity change, negative = inhibition” value is on record?
**A.** inactive: 2.51%

**Q.** For `CCN(CC)C(=O)C1=C(C)Nc2nc3ccccc3n2C1c1ccccc1F` (stereo unspecified), which “outcome” value is on record?
**A.** inactive

**Q.** For `CCC(=O)N1CCc2cc(CNC(=O)Nc3cc(OC)c(OC)c(OC)c3)ccc21`, which “activity change, negative = inhibition” value is on record?
**A.** inactive: 3.62%

**Q.** For `CCOC(=O)c1ccc(Nc2c(-c3ccc(OC)cc3)nc3nc[nH]n23)cc1`, which “activity change, negative = inhibition” value is on record?
**A.** inactive: -4.33%

**Q.** With `CCOc1ccc(CCNC(=O)C2Cc3ccccc3N2C(=O)CC)cc1` (stereo unspecified) as the compound, how does the “activity change, negative = inhibition” value read?
**A.** inactive: 2.96%

**Q.** With `CCOc1ccc(S(=O)(=O)Nc2ccc3c(c2)CCCN3C(=O)c2cccs2)cc1` as the compound, how does the “activity change, negative = inhibition” value read?
**A.** inactive: -12%

**Q.** For `Cc1ccccc1Cn1c(=O)n(Cc2ccco2)c(=O)c2sc3ccccc3c21`, which “activity change, negative = inhibition” value is on record?
**A.** inactive: 7.08%

**Q.** With `COc1ccc(CNC(=O)CC(C)CC2=NS(=O)(=O)c3ccccc3N2)cc1` (stereo unspecified) as the compound, how does the “activity change, negative = inhibition” value read?
**A.** inactive: -3.83%

**Q.** Which “activity change, negative = inhibition” value does the source give for `COc1ccccc1CNC(=O)Cc1c(C)c2cc3c(C)coc3c(C)c2oc1=O` here?
**A.** inactive: -2.16%

**Q.** For `O=C(Cc1ccc(NC(=O)N2CCCCc3ccccc32)cc1)NCc1cccc(Br)c1`, which “activity change, negative = inhibition” value is on record?
**A.** inactive: -3.94%

**Q.** With `Cc1nnc(SCc2cc(=O)c3cc(F)ccc3[nH]2)n1C` as the compound, how does the “activity change, negative = inhibition” value read?
**A.** inactive: 3.23%

**Q.** With `CCCCn1c(SCc2ccccc2C)nc2ccsc2c1=O` as the compound, how does the “outcome” value read?
**A.** inactive

**Q.** Which “activity change, negative = inhibition” value does the source give for `COc1ccc(CNC(=O)C(=O)NCC(c2ccco2)S(=O)(=O)c2cccs2)cc1` (stereo unspecified) here?
**A.** inactive: -3.74%

**Q.** For `Cc1cccc(N2CCN(C(=O)Cn3c(C)c4cnn(-c5ccccc5)c(=O)c4c3C)CC2)c1C`, which “outcome” value is on record?
**A.** inactive

**Q.** Which “activity change, negative = inhibition” value does the source give for `Cc1ccc(S(=O)(=O)c2nc(-c3cccs3)oc2SCc2ccc(F)cc2)cc1` here?
**A.** inactive: -23.6%

**Q.** With `CC(C)c1ccccc1NC(=O)C(Cc1c[nH]c2ccccc12)NC(=O)OC(C)(C)C` (stereo unspecified) as the compound, how does the “activity change, negative = inhibition” value read?
**A.** inactive: 0.531%

**Q.** Which “activity change, negative = inhibition” value does the source give for `C=C(C)Cn1c(SCC(=O)c2ccc(Br)cc2)nc2sc3c(c2c1=O)CCCC3` here?
**A.** inactive: 3.03%

**Q.** For `CC1=C(C#N)C(NC(=O)c2ccccc2)(C(F)(F)F)C(=O)N1` (stereo unspecified), which “activity change, negative = inhibition” value is on record?
**A.** inactive: -0.153%

**Q.** With `Cc1ccc(NS(=O)(=O)c2ccc3c(c2)CCN3C(=O)C2CC2)c(C)c1` as the compound, how does the “activity change, negative = inhibition” value read?
**A.** inactive: 40.4%

**Q.** With `CCOC(=O)C1CCCN(C(=O)Cn2ncc3c(C)n(Cc4ccc(Cl)cc4)c(C)c3c2=O)C1` (stereo unspecified) as the compound, how does the “activity change, negative = inhibition” value read?
**A.** inactive: -1.35%
